# Measurements as given in PubChem BioAssay AID651820 (National Center for Advancing Translational Sciences (NCATS), 2012).
# Out of some 340,000 compounds screened, about 12,000 (3.5%) were called active. The inconclusive results got no clear call from the source; some entries with a clear call stand among them for comparison. Calls follow the shape of the dose curve; as a rule, active = well fitted inhibition curve with a large enough effect; inconclusive = small, poorly fitted or top-dose-only effect, or another doubt; inactive = no such curve, though single readings can be large or run the other way. Potencies of inconclusive entries are left out as doubtful fits.
# Test: qHTS Assay for Inhibitors of Hepatitis C Virus (HCV)
# Conditions: Huh7.5.1 HCVcc-Cre (HCVcc is cell-culture hepatitis C virus) infection, luciferase reporter, 44 h; series mostly up to 41.8 µM
# Outline: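 Compounds are dispensed onto cells plated 4 h earlier at 1,000 per well, with HCVcc-Cre virus (about 0.5 moi) added next. Following 44 h of culture, luminescent signal is measured for 15 sec after 15 min with substrate at room temperature.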
# Potency is read from the fitted curve at half-maximal effect; tags tell the direction and shape of the fitted curve.
row,SMILES,Potency
1,CCOC(=O)c1cc(NC(=O)N(CC)C2CCCCC2)c(C)nc1C,inactive
2,O=[N+]([O-])c1cc(S(=O)(=O)Nc2cccc(Cl)c2)ccc1N=Nc1c(O)[nH]c2ccccc12,"inconclusive [inhibitor, single point]"
3,O=C(NCc1cc(C(F)(F)F)cc(C(F)(F)F)c1)C1CC(c2c(Cl)cccc2Cl)=NO1 (centres undefined),"inconclusive [inhibitor, partial curve]"
4,O=S(=O)(Nc1nc2ccccc2nc1Nc1ccc2c(c1)OCO2)c1ccc(F)cc1,"inconclusive [inhibitor, single point]"
5,O=C(CSc1c2c(nc3ccc(Cl)cc13)CCCC2)N1CCN(C(=O)c2ccco2)CC1,"inconclusive [inhibitor, single point]"
6,C[C@H](NC(=O)C1CCN(S(=O)(=O)c2ccccc2)CC1)C(=O)NCc1ccc(Cl)cc1Cl,"inconclusive [inhibitor, single point]"
7,CC(C)c1ccc(NC(=S)NNC(=O)c2cccs2)cc1,inactive
8,COc1cc(=O)n(C)c2cc(N(C)C)ccc12,"inconclusive [inhibitor, full curve, poor fit]"
9,CN(C)CCN1C(=O)C(O)=C(C(=O)c2cc3ccccc3o2)C1c1ccc(N(C)C)cc1 (centres undefined),inactive
10,COc1ccccc1N1CCN(C(=O)C2CCCCN2S(=O)(=O)c2ccc(C)cc2)CC1 (centres undefined),inactive
11,COc1ccccc1NC(=O)C(C)OC(=O)CCCc1c[nH]c2ccccc12 (centres undefined),"inconclusive [inhibitor, single point]"
12,CCOc1ccc(-c2nc(C#N)c(NCc3ccc4c(c3)OCO4)o2)cc1,"inconclusive [inhibitor, partial curve]"
13,O=C(Nc1nc2ccccc2[nH]1)c1ccc(Br)o1,inactive
14,COc1cc(C(CC(=O)N2CCOCC2)c2c(OC)cc(OC)c3ccc(=O)oc23)cc(OC)c1OC (centres undefined),"inconclusive [inhibitor, full curve, poor fit]"
15,CCOC(=O)c1sc(=NC(=O)c2ccco2)n(C)c1C,"inconclusive [inhibitor, single point]"
16,O=C(c1ccco1)N1CCN(c2nc(C3CC3)nc3c2nnn3Cc2ccccc2Cl)CC1,"inconclusive [inhibitor, partial curve, poor fit]"
17,CCCCCn1c(CN2CCN(c3cc(Cl)ccc3C)CC2)nc2c1c(=O)[nH]c(=O)n2C,"inconclusive [inhibitor, single point]"
18,COC(=O)c1cc2c(ccn2-c2ccc(F)cc2)n1CC(=O)OC(C)C,"inconclusive [inhibitor, partial curve]"
19,O=C(CCNS(=O)(=O)c1cccc2nonc12)NCCc1ccc(Cl)cc1,"inconclusive [inhibitor, single point]"
20,NNC(=O)Cn1c2ccccc2c2ccccc21,inactive
21,COCCCn1c(=N)c(C(=O)NC2CCCCC2)cc2c(=O)n3ccccc3nc21,inactive
22,CCCOC(=O)c1c(N)sc2c1CCC2,"inconclusive [inhibitor, single point]"

row,SMILES,Potency
1,Cc1cc(C)nc(N/N=C/C2=C(N3CCOCC3)C(=C\c3ccc(Cl)cc3)/CC2)n1,"inconclusive [inhibitor, full curve]"
2,O=C(Nc1cccc(S(=O)(=O)N2CCOCC2)c1)C1CCCN(C(=O)c2ccc(Cl)cc2)C1 (centres undefined),"inconclusive [inhibitor, single point]"
3,Cc1ccccc1-c1nc(CN2CCCC2c2ccc(F)cc2)c(C)o1 (centres undefined),inactive
4,O=C(Nc1ccccn1)C1CCN(S(=O)(=O)c2ccc(Cl)cc2)CC1,"inconclusive [inhibitor, single point]"
5,COC(=O)c1ccc(NC(=S)NC2CC(C)(C)NC(C)(C)C2)cc1,"inconclusive [inhibitor, single point]"
6,CC(C)N(C#N)c1nc(N2CCOCC2)nc(N2CCOCC2)n1,"inconclusive [inhibitor, partial curve]"
7,COc1ccc(-c2nnc(SCC(=O)N3CCCC3)o2)cc1,inactive
8,CCOC(=O)C1CCCN(C(=O)CCCn2nc(C)n3c(cc4sccc43)c2=O)C1 (centres undefined),inactive
9,COc1ccc(OC)c(N2Cc3ccccc3C2)c1,"inconclusive [inhibitor, partial curve]"
10,CCOc1ccc2c(=O)c(-c3ccc4c(c3)OCCCO4)c(C)oc2c1,"inconclusive [inhibitor, single point]"
11,CCOC(=O)c1sc2nc(CC(C)C)c3c(c2c1N)CCC3,inactive
12,COc1ccc(-c2cc(=O)c3ccccc3o2)cc1,"inconclusive [inhibitor, single point]"
13,CN1C[C@@H]2[C@@H]3C(=O)N(Cc4ccccc4)C(=O)[C@@H]3[C@](Cc3ccccc3)(C1=O)N2C(=O)c1ccc(Br)cc1,inactive
14,CCOc1ccc(/C(O)=C2/C(=O)C(=O)N(CCCn3ccnc3)C2c2cccs2)cc1Cl (centres undefined),inactive
15,Nn1c(-c2ccccc2)cc(-c2ccccc2)cc1=O,inactive
16,O=C(Oc1ccc(Br)cc1)C1CC(=O)N(c2ccc(F)cc2)C1 (centres undefined),"inconclusive [inhibitor, single point]"
17,COn1c(SCc2cccc(Cl)c2)nc2ccccc2c1=O,"inconclusive [inhibitor, single point]"
18,CCN(CC)S(=O)(=O)c1ccc2c(c1)nc(SCC(=O)N1CCCCCC1)n2-c1ccc(OC)cc1,"inconclusive [inhibitor, partial curve]"
19,Cc1ccc(S(=O)(=O)N2CCCN(c3nc4cc(C)ccc4cc3C#N)CC2)cc1,active: 22.4 µM
20,O=[N+]([O-])c1cc(F)cc(F)c1Nc1ccc(F)cc1,inactive
21,CC1CCCN(CCCN2C(=O)C3C(C(=O)Nc4cccc(Cl)c4)C4C=CC3(O4)C2C(=O)NC2CCCCC2)C1 (centres undefined),inactive
22,Cc1cc(C)nc(NNC2=CC(=[N+]3CCCCC3)CC(C)(C)C2)n1,"inconclusive [inhibitor, single point]"
